A collection of fitness landscapes (doi:10.1016/j.celrep.2020.107928)
The full ranking holds about 81,000 sequences; the median of “one-hybrid fitness for binding parS DNA” is about -0.17, and the highest 2% start at about 0.51. The list shows a part of the results.

B1: Caulobacter ParB omega fusion; a variant is named by its letters at X, in order, B8GW30 (parent)
chain: MESVVVGEPGMSEGRRGLGRGLSALLGEVDAAPAQAPGEQLGGSREAPIEILQRNPDQPRRTFREEDLEDLSNSIREKGVLQPILVRPSPDTAGEYQIVAGERAWRAAQRAGLKTVPIMVRELDDLAVLEIGIIENVQRADLNVLEEALSYKVLMEKFERTQENIAQTIGKSXSHVANXMRLLXLPDEVQSYLVSGELTAXHARAIAAAADPVALAKQIIEGGLSVRETEALARKAPNLSAGKSKGGRPPRVKDTDTQALESDLSSVLGLDVSIDHRGSTGTLTITYATLEQLDDLCNRLTRGI

Variants of: B1
Assay: one-hybrid fitness for binding parS DNA (scaled: cognate 1, non-cognate 0); higher = stronger binding
Conditions: with parS DNA site
Outline: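 The reporter was HIS3, with the binding site 19 bp from the promoter, in E. coli USO used for bacterial one-hybrid selection of Caulobacter ParB libraries with four specificity codons randomised. Growth was on M9 lacking histidine, with 0.1 mM IPTG and 5 mM 3-AT, for 48 hours at 37°C. Illumina sequencing covered plasmids before and after selection; three replicate libraries were pooled and variants with under 10 reads dropped. A fitness score is the log change in variant-to-wild-type read ratio, rescaled to the cognate and non-cognate references.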

one-hybrid fitness for binding parS DNA, 0.967:
RKVS

one-hybrid fitness for binding parS DNA, 0.973:
RQMG

one-hybrid fitness for binding parS DNA, 0.305:
RHWN

one-hybrid fitness for binding parS DNA, 0.874:
RIRS

one-hybrid fitness for binding parS DNA, 0.6:
RWFC

one-hybrid fitness for binding parS DNA, 0.27:
NRWE

one-hybrid fitness for binding parS DNA, ≤ 0.2:
FKAW
ALVW
SGIS
GKER
HNPR
PDKP
STPV
INMS
DLIA
QAWS
REEM
EMST
FGRV
CLDA
CQTL
KRTA
AYTS
RTMP
QCTS
IATM
FSIT
SAIT
WRHR
AVHW
NMGR
CHQM
MFKT
TFDS
HCAW
NKWE
QNIV
LSHH
HMNT
AKPV
HLGE
QEMV
DCNV
FDRG
YYIS
GFTV
NGKG
PRGF
EKDR
CVHY
EPTS
ITST
IYSS
VKEG
AHPN
AVKY
RQRD
HSQC
DRVR
LTPN
SASG
CGML
YIIN
MHVD
MWMS
VMYR
QQQI
AGYS
MHNL
QCPH
ATEE
SMVS
CSNW
HTTS
SRKK
DHMT
LCWG
GEVR
RTHR
ERWT
WMEK
DPRT
QMAH
WAQG
WMPF
PVNK
RVSK
YPWN
ADQV
RFTD
LCAF
TPRM
FYGG
GAHS
CAHT
YWMT
RMGI
NLWV
ITIY
KYRF
MLRV
VPGE
PRVR
TTLH
YPEN
PNHR
LWPC
NVPK
KCFS
DAFC
HLAI
DKNG
QYNC
TSAY
CLPI
EPSI
VTHW
VYRA
AACD
KPTN
PCQF
SYES
RTQL
VLDF
QKVR
YGNV
SSWG
CLAF
QCSK
LESG
ENYG
HQQG
MAKR
VSQN
QNDF
NRDR
ADSM
KKDC
KCES
YMYG
WRAY
NWRM
YKAC
ATPP
MTSD
TIHV
TLVM
HCQR
TSYF
DLEL
GLYS
NHGV
ESCC
